Screen size: about 310,000 compounds; about 14,000 (4.5%) showed an effect of 50% or more. Effects have a minus sign here. The list shows a part of the results.
The compounds below were run against human ether-à-go-go-related gene (hERG) potassium channel (human, UniProt Q12809) (assay: primary screen, population patch clamp on CHO cells stably expressing hERG).
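Further: peak tail current of the secondary pulse compared with the same well before compound.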

Sequence of human ether-à-go-go-related gene (hERG) potassium channel (Q12809 whole entry, looked up): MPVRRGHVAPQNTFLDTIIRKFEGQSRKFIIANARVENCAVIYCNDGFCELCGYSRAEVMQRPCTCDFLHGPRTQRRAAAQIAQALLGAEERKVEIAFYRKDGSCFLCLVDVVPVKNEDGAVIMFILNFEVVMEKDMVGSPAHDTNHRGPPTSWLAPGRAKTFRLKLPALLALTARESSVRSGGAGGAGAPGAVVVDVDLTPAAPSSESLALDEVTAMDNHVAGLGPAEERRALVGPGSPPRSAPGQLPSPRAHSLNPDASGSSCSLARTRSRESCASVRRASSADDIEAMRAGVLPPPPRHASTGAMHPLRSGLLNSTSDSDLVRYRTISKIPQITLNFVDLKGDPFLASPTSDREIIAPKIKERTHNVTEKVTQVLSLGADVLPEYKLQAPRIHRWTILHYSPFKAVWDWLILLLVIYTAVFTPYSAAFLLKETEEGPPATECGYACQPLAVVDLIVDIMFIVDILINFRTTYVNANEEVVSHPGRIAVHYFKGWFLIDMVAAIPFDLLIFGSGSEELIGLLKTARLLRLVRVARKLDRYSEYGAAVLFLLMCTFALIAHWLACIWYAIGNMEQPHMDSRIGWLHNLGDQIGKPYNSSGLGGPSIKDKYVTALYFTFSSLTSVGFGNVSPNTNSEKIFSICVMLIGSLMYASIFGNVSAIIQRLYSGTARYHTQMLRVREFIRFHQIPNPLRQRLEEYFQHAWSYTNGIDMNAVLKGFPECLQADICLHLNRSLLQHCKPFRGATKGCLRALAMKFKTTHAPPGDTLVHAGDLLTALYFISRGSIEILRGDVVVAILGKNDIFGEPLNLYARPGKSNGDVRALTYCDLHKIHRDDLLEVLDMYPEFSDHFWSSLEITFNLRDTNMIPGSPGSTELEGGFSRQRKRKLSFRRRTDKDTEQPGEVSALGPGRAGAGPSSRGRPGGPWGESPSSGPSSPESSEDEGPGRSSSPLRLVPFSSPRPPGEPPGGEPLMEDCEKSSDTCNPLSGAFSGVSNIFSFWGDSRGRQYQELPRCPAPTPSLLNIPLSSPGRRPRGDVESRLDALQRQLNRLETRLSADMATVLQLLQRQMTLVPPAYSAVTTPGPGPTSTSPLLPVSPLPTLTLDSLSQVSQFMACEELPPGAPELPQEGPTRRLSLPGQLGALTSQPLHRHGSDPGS

Row | SMILES | hERG current change (%, negative = inhibition) at 10uM [%]
1 | O=C(NNC(=O)C1CCCO1)c1ccccc1Cl (stereo not drawn) | -3.68
2 | O=C(CCC(=O)N/N=C/c1ccccc1O)NCc1ccccc1 | 5.19
3 | CCc1nc2ccc(C(=O)Nc3nnc(C)s3)cc2nc1CC | 17
4 | Fc1ccc(Br)cc1SCCc1ccncc1 | -11.9
5 | Cc1ccc(C)c(NC(=O)CSc2nnc(-c3ccccc3)o2)c1 | -5.06
6 | COc1ccccc1OCC(=O)NNC(=O)c1ccoc1C | 39.4
7 | COc1ccc(OC)c(-c2csc(NC(=O)C3COc4ccccc4O3)n2)c1 (stereo not drawn) | 21
8 | COCCOC(=O)C1=C(C)N=C2SCCC(=O)N2C1c1cccc(Br)c1 (stereo not drawn) | -11.4
9 | COc1ccc(OCC(Cn2cnc3ccccc32)OC(C)=O)cc1.Cl (stereo not drawn) | -26
10 | COc1ccc(CCNC(=O)C2CCN(S(=O)(=O)c3ccc(F)cc3)CC2)cc1 | 0.507
11 | Cn1c(SCC(=O)NC2CCCC2)nnc1-c1ccc(S(=O)(=O)N2CCOCC2)cc1 | -0.488
12 | CC(OC(=O)c1cccs1)C(=O)NC1CCCCC1C (stereo not drawn) | -66.7
13 | CN(C)CCN(CC1CCCN(Cc2ccccc2F)C1)C(=O)c1ccc(F)cc1 (stereo not drawn) | 3.46
14 | Cc1ccc(CSCC(=O)Nc2ccccc2)cc1 | 12.4
15 | Cc1c(Br)cnn1C(C)C(=O)N1CCN(c2ccccc2F)CC1 (stereo not drawn) | -38.3
16 | O=C(CN1C(=O)CCC1=O)Nc1nc(-c2ccc(Oc3ccccc3)cc2)cs1 | -7.31
17 | Cc1cc[n+](-c2[nH]c(=O)sc2/C=N/NC([S-])=Nc2ccccc2)cc1C | -0.725
18 | O=C(COC(=O)C1CCCCC1C(=O)N1CCc2ccccc21)NCc1ccco1 (stereo not drawn) | -21.3
19 | COC(=O)[C@@H](NC(=O)N(C1CCCCC1)C1CCCCC1)C(C)C | -7.86
20 | N#C/C(=N/Nc1ccccc1F)C(=N)N1CCOCC1 | 9.62
21 | CCC(C)(C(=O)NC1CCCCC1)N(C(=O)c1ccccn1)c1ccccc1 (stereo not drawn) | -44.8
22 | Cc1c(C)n(CCCN(C)C)c2ncnc(NCc3ccccc3)c12 | -13.9
23 | COc1cccc(C(=O)NNC2OC(CO)C(O)C2O)c1 (stereo not drawn) | 22.3

Row | SMILES | hERG current change (%, negative = inhibition) at 10uM [%]
24 | O=C(NC(Cc1ccccc1)C(=O)O)/C(=C\c1cccc([N+](=O)[O-])c1)NC(=O)c1ccco1 (stereo not drawn) | 28.4
25 | O=C(COc1cccnc1[N+](=O)[O-])N1N=C(c2ccc(Cl)cc2)CC1c1ccco1 (stereo not drawn) | 16.9
26 | COc1ccc(C(C)=O)cc1CN1C(=O)C(C)N(c2ccc(C)cc2)C1=O (stereo not drawn) | -25.4
27 | Cc1cc(C)nc(N2CCCC(C(=O)Nc3cccc(Cl)c3)C2)n1 (stereo not drawn) | 17.3
28 | Cn1c(SCC(=O)N2CCN(c3cccc(Cl)c3)CC2)nnc1-c1ccncc1 | -55.9
29 | Cc1cc(SCC(=O)c2cccs2)nc2c(C)cccc12 | 0.476
30 | COc1ccc(C(=O)NNC(=O)C(NC(=O)c2ccccc2NC(=O)c2ccco2)C(C)C)cc1 (stereo not drawn) | -32.3
31 | O=C(Nc1ncccn1)c1ccc([N+](=O)[O-])cc1[N+](=O)[O-] | -7.61
32 | NS(=O)(=O)c1ccc(NC(=O)COC(=O)C2(c3ccccc3F)CCCC2)cc1 | 6.61
33 | CN=C(Nc1cc(C)nn1CCC#N)c1ccc(F)cc1 | 6.14
34 | O=C(c1ccc(F)cc1)N1CCN(c2cc(N3CCCCC3)c(F)cc2[N+](=O)[O-])CC1 | -24.6
35 | Brc1cc(/C=N/n2cnnc2)oc1Br | 1.7
36 | CCC1(CC)Cc2ccccc2-c2nc3ccccc3c(=O)n21 | 11.4
37 | CC(C)CCNC(=O)CN(CCN1CCOCC1)C(=O)Cn1nnc(-c2ccc(F)cc2)n1 | -11.1
38 | CCCN1C(=O)C2(C(C(=O)c3ccc(C)o3)=C(O)C(=O)N2CCCOC)c2ccccc21 (stereo not drawn) | 9.53
39 | COC(=O)/C=C/c1ccc2c(c1)S(=O)(=O)N(c1cccc(OC)c1)[C@H]2CC(=O)OC | -7.05
40 | O=C(CCc1ccccc1)c1c(O)cc(O)cc1O | 3.92
41 | Br.CC1=C(c2ccccc2)SC2=NCCN21 | -10.7
42 | O=[N+]([O-])c1ccc(Cl)c(/C=N/n2c(COc3ccccc3)n[nH]c2=S)c1 | 12.7
43 | C=CCOc1c(CNc2ncn[nH]2)cccc1OCC | -0.669
44 | O=C1C(Cl)=C(N2CCOCC2)C(=O)N1c1ccccc1F | 20.3
45 | O=C(NCC1CCCO1)C1CCCCN1S(=O)(=O)c1ccc(F)cc1 (stereo not drawn) | 1.57

— publication PMC4336329 (PLoS ONE, 2015)
